Test results: paper PMC10726135
This is one part of the list. At the low end of the ranking the order means little. The protein was read in a cell extract, so binding may be indirect.

biological target: T1, HNF4alpha2 (COS-7 nuclear extract) (UniProt P41235); experiment: protein-binding microarray; conditions: COS-7 nuclear extract on double-stranded Agilent 4x180k PBM; binding buffer, salt, pH and temperature not given; high values mean tight binding; double strand, one strand shown; sequences stand for … in …GCCTAGGGAGATTAGAGTATCGGTCGA
T1 sequence: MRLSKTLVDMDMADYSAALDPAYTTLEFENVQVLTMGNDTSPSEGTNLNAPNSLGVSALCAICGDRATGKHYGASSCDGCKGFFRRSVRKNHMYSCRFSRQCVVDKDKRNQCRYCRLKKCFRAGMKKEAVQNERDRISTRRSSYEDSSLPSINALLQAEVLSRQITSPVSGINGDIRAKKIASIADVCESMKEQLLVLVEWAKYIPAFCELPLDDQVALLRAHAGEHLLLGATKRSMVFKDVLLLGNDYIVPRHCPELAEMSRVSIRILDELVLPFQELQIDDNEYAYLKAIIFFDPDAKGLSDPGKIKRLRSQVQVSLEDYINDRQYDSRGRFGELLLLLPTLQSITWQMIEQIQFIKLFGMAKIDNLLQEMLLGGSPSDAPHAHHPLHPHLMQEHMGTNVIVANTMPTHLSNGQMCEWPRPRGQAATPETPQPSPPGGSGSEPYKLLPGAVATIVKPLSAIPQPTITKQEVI

Sequence	binding signal (log2 normalized intensity)
ACCAGATCTTACTTTGAGGTGTTCTCTGGG	0.948
TAGGTTGGAGGAGCTGAACTGTAACCTCAA	0.872
CCAGTTCCAGGGATGTCTTTTTCTGACCCA	2.54
GTCCCACAGGGAAAGTATGGGTCAGCCCTG	0.783
GAAGAAGTTGCTCAGTGTTCCACAGCAAGT	-1.07
AAACAACACACCTTGCCACCCACACTGCAG	-0.991
GCGCCACATTCTGAGCCAGCACTTCGACCT	2.29
AATGAGTGTGGGACTTGAGGTCTTATCTTT	1.11
ATCCCTGTTGCCTCATCTGAAAAAAGCTAT	0.599
TCTCTCTCCACCTGGAGGGACTTTGTCCCA	5.1
TATTTGTAGCTTCAAACCAGTTATTCCAAG	0.687
TTTCTGTAAAGCTTTATTTTGGGGCTGTAT	0.324
AGGATGACAAAGAGCAAGTGACCCTCAGAC	2.57
TCAGAAAGGTCAGCGCTTTGGTAGGCTGTA	0.762
GCAATGGCTTCACAATTCCTAGCAATTCAA	-1.18
ATGTGTTACACCTGTGTGTACTGGGCAGAT	1.41
AATGTAAACTCCAAGGAGCAAATCCGTAAG	-1.07
TGAATTGATTGCCAAGAGGGAGGGGTCAGG	1.18
GAGTACTTGGACTTTAACCTTTAGATTACT	7.31
CAAACTGGGACCTGTGACACTCTGCTGCCT	-0.941
CAGCCCCATCCCCCAATACACACACACCCC	6.31
GAAAATATTTCTCTGAACTTTGACCTATAG	8.62
CTGAAGGCAAATTCTTAGAATTGCACTGCA	-1.13
GGAAGACTGATAAGAAAACTAGCAAGGATA	-1.24
AGAGGGACAAAATGCCCAGGATTCCTTTTT	-1.07

Sequence	binding signal (log2 normalized intensity)
ACAGCTAGTCTAGACTTTGCTTTCTTGGAG	1.24
CCGAGGCATATTTAACTTGGCAAGGGGAGG	-1.12
AGGCAGGCTGAGTCAGTTTAGTCCTGGATG	1.02
TAGCTTTCCTGTCACAAGAGATAAAGCTCT	-1.14
AGAAGGAAAAGGCCTGACCTTTGCCCTCTG	10.1
GACATCTGCTTCCAAAGAGCTCAACCTGTG	-1.16
AAAGTCTGGCAAATGAAATGTAATCAGCAA	-1.19
AGAGGTAACTCCCCCTTCATCTGGGACGTG	2.09
CTTCCAGATCTGGATATGCCTGGGGTTCCA	0.819
CTGTGGTACAGGCAGTGACTGGACCACGAT	-0.442
AAATACCCTCTTTAGGGTAGCCTGGGTTAA	0.885
AATAACAAACAAGAAAGTTGAGGTGAATAC	-0.906
GAGTTGGAGAAGAGCAAAGATCATCTGGTG	1.22
AGTGAAGGTTCAGTGAAGTAGTGTGTATGA	2.27
GGCCTCCACACATTGCCACACTATTTACAC	-0.361
GGACTTCTCTGCCCTCTTCCCTCTACCTCT	1.76
TGCTCTCAGCACACTCTGGTACCATGGATG	0.503
ATCTAGGTGAGGGATGAGGACTTTGATCAG	6.01
CTAGCAAGTGCCAAGATGCTAAGGCAAGAT	-1.14
TGACCTTTGCTCCAGTTCCCAATAATTTCC	4.46
GGCCCAGCTGGTTTGAAGAATGTGGTCTGG	1.06
AATCACACTAATCTGTCAGAAAACCCACGC	-0.674
AAATGAAGCAACACTTTCTGACCTTTAAGC	4.52
AAGGGCAAGTGACTGATAAGGCTAAGTGGA	-1.17
CACTCTACTCTCTTTGGAGTGCTCCCGCCT	0.514

Sequence	binding signal (log2 normalized intensity)
GCCAAGTTGAGGAGTTTGTACTTTATCCTA	2.93
AGCTGAGCAGAGAGGACCCTGTGATCATAT	0.616
CCCTAGGAAGGATAAGAGCAAGAAACAGCA	-1.14
GCAGCCAGTTCTGGACGGCAGATGCAGAGT	-1.07
GGAAGGGTATGCATGGAATGCAGGAGATCC	-0.852
AACATCATAGAGTGTACTTATGCAGACCTG	0.451
GAAGACCAAAGTTCTTATTTGCTGAGGAAG	-0.462
TGTTCACTCTAGGAACTTGTCTAAAAACAT	-1.18
CCCCCAGGTAGCTGCCAATGCAAATCCCAG	1.35
TCAAAGGGCAAAGGAATAAAATAGCTGCCT	-1.08
AAGATCAGTATAGTTAGGGCCTTGCAGGGG	0.175
TGCGCTTAGTCCATGACGCAAGCGAGTAAG	-0.852
TGGGCTCCTGCCTTGGAGAAGTGAACTTTG	4.34
ACATAAGCAGAGCCAAGTGGTCATTACCTC	-1.11
GTTATCTCTCAACTCAGTGAGGGCTATTGA	0.946
ACCCAGACGAGCTGTCACTGGCTGCTGCTC	-1.22
CACATACACACACACACACACACATTGCAG	-1.05
CTTCCTCTTCTTCACCGGAGATTTACATTC	1.17
TAAGATATTGGTAAGTTAAGTAACTCTCCA	-1.14
CAACCATCAAAGGTCACTTTACAGATAAAG	2.21
CGGGCGGGGGGTGGGGTGGAAGCTATGCCT	-1.02
CCCTGCACCCTACCCCCATACTTTATTTAG	2.49
ACGATGTGTAAACAAGTGAGCATGGCTGTG	0.636
TGCAGTGTCCATGGTGACCATGTGATGTGA	1.51
TCACCACTTCAAGCTTGGTATGCTTAAGTG	-0.618

Sequence	binding signal (log2 normalized intensity)
TGATTTATTCAGGCAATGTCACGTTTATTT	1.32
TCTCTCGCGAGAGCCGAAGTCTCTCGCCGA	-1.01
GAGCAGGGTATCAGTTGAACAGAATAGAGG	-0.996
TGTTCTCTGTACGGAAGGCCGGGCCTCAAG	-1.09
AGTCTGAGGCTGCTCTCTGTCCCTGCACCC	0.835
TAAGGGTAGAGACCTTTGTTTTGTTTTCAA	1.35
GTTGTAGCAGTTCACACTCCCACCAGCATG	-1.12
CAGGGAGATTTCCTGGGAGAGAAAAGCAAG	-1.12
CCTTTAGTCTCTAGCCCCGCCCAGATGTCT	3.82
AAGGCAATATCACTTGTTTGCACAAAGGGT	1.02
AGGACTTTGGACCGTCTTGTGGATCCTTGG	4.73
CAGGTTGAGTCCAGCCTGTGGTGGGAAACT	-0.127
GCAGAGTTGGGCAGAAGGTGTTTCAGATGG	0.728
AAATAAGGGAGGTAAAAGTCCAACAGGGTT	1.93
GAGTTATCTTCCTCCCCCCTTGGCTACATG	4.15
TTTAACTTTTGGGATCAGCAATGCTCAGCC	-0.936
CGGAAGCCTTCCCCGCCCGCAGCCCAGTCT	4.02
CCTACATTCCACCCTCATTTGCTTGACCCG	3.47
AGACAAGGCACCAAAGGAATCTACATAACA	-1.16
GCCAAATGACTCACTCAAGGCAGCTCAGCT	-0.906
ACATTCAGGACACTTCTGAAAAAAATATTG	0.151
GGTGGCCGAGCAGGACGCTACCCGCTTGGC	-1.25
AGGGTGACACTGCTCTCTCCAGGGGAGGGT	-1.07
AACCCCCAAAACTGCCTGATAATCTTATCA	2.47
GTGAGGCTGTGATGTTTGCCCATGATCATA	0.597

Sequence	binding signal (log2 normalized intensity)
GGCTGTTTCACAAGTTTAGCCAAGCAAACA	-0.992
GGGGTAAGCAAGGCTCTTAGCAGAAGCCCT	-1.15
TAGAACTCAGTGTGAACTCAATGCTGCTGA	-0.787
ATAATGTCAAAAATCTTAAGGAGGAGTGCT	-1.06
TTCGTTGAAAGCTGCTTCCCAGTTGCTCTG	-1.2
CATCTTCTTATCTGAGGTTTGACTTTGAGG	2.27
GAAACACATTCTTAGACAACACACCACCTG	-1.05
CCGAGGCCTTGAGCATACAAAACCCCTTAT	1.57
TGCGGTAATCCTTACGGCCCTGTGGTGTTC	1.62
TGGTGAGTCAGTTCCCCTGCGGACTCTGGA	2.44
ACTTATCAGAGGAAATTCAGATCAAAGCAA	-1.15
ACGTCTGTTAACCAAGATACTGGGTCAGAG	1.11
AGGAGTGTCTTTCTCCTTGAACACAGTGTT	1.25
GCCCTTTGACCTCTCTCTCCTAACTATGGT	5.51
GGAATGCTGAAGGGAAGGCTGCCGTCCTCA	-1.14
AAGCTGAATATTTATCAGATACAGGAGATC	0.738
CATTTTGTCTTTTCTCCCCTGACTACCAGC	2.14
AGTTGGAGAAGAGCAAAGATCATCTGGTGG	1.58
ACAGGGCTGGGATAACCGAGGCTGACAGCA	-1.04
CCCACTTGTATGTCCAAGGGTCACTCGACA	3.48
AATGAGGACGTGTGTGTTCTGGACTTCTCT	2.17
GACCCGAGTGCCCTTTGGCAAACAGGAGCT	0.391
ACTAGGAGCCTGCACGCCTGTTCACATTCC	-0.755
AGGGACCCTTCCTCGGTGGAGTTGACACAG	1.11
GAAATTCAGGCTGAGGTGCTCTCAGATAAG	-1.16

Sequence	binding signal (log2 normalized intensity)
ACAATGTGAGCAGGTGTGTGGCATCTTGGG	0.785
TTAGTGCATAACTTTTGAATCCTCTTTGAG	-0.77
TTCTGACCTTTAAGCACCCAGAGCCCCACC	4.7
AAGAATGAAAGCCAAGGCAGATATGAAAGA	-1
TTTTTTCAGGTGTTGCTCTCTTGCCATTCG	0.156
TCTCTCTCCTCTCCAGCCCATCCTAAGCCC	2.85
TTTAATTCTGAGTTCCAATAGCAAAACCTG	-1.1
CCCACAGTGCCCTCTATTGGCTGTTTAGTA	1.58
AGCCCTAACCAGGGGTGGGGACCTTTGGGC	3.12
CTTTCATACGTTTAACAGTTCCTCCTGGAA	1.18
TCCCCGGGCGGGATGGGGTCACGAGACGGT	1.72
CATTCCAGAAAGACAGCTGCATTTGTCCGG	0.39
TGTCTTTGGGTGGAGGGGAGGTTATCTTGG	1.23
AGTGAAGACTGAAAAGAGATAACTAGATGA	-1.05
GACCTAGATGGAATGTTGTGTCTTCCAGTT	1.63
CCTGTTTGACCTTCGAACCCTTGCCATTTA	7.04
TGAATGCCTAGGTGACAAGGAAAACTACAC	-1.11
GTGAGTGGACTTTGGTCCTGGTCAGACTTG	5.76
GGTCCAGCCTACCCACCCACACCTCCCCTT	4.58
AAAGCCTAAAATATTCACTATCTGATCCTT	-0.95
